Where a name gives a salt, the structure may show the parent alone. Read-outs that look alike come from different tables or passages of the source.
Target: T1, δ-opioid receptor (Rattus norvegicus, UniProt P33533)
T1 construct: the forebrains are homogenized in Tris buffer in a Teflon®-glass homogenizer; from tissue; host or cells: forebrain of male Wistar rats (particulate membrane preparation)
Conditions: rat brain δ opioid receptor binding, 10 nM solutions of the compounds

T1 sequence (P33533 whole entry): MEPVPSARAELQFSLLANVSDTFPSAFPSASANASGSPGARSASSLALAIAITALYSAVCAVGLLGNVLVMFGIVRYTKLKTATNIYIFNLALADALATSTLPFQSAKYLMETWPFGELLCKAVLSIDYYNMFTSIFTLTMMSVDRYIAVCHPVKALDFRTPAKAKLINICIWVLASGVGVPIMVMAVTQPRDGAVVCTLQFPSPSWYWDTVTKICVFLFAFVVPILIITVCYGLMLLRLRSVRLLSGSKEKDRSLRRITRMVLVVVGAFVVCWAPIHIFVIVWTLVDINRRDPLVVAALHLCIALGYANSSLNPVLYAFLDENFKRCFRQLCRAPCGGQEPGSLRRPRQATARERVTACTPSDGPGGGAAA

Work on `CCNC(=O)c1ccc(C=C2C[C@H]3CC[C@@H](C2)N3CCc2ccccc2)cc1` (single isomer, unassigned) [Cpd 41, (+)—N-Ethyl-4-(8-phenethyl-8-aza-bicyclo[3.2.1]oct-3-ylidenemethyl)-benzamide] yielded a Ki (DOR binding Ki) of 163 nM.
Work on `CCNC(=O)c1ccc(C=C2C[C@H]3CC[C@@H](C2)N3CCc2ccccc2)cc1` (single isomer, unassigned) [Cpd 42, (−)—N-Ethyl-4-(8-phenethyl-8-aza-bicyclo[3.2.1]oct-3-ylidenemethyl)-benzamide] yielded a Ki (DOR binding Ki) of 100000 nM.
`CCNC(=O)c1ccc(C(=C2CC3CCC(C2)N3CC=C(C)C)c2cccc(C(=O)O)c2)cc1` (single isomer, unassigned) [Cpd 44] showed a Ki (read-out: DOR binding Ki) of 2.2 nM.
Molecule `CCNC(=O)c1ccc(C(=C2CC3CCC(C2)N3CC=C(C)C)c2cccc(C(=O)O)c2)cc1` (single isomer, unassigned) [Cpd 45] has a Ki (read-out: DOR binding Ki) of 29.8 nM.
For `CCNC(=O)c1ccc(C(Br)=C2C[C@H]3CC[C@@H](C2)N3)cc1` (single isomer, unassigned) [Cpd 92], the Ki (DOR binding Ki) was 168 nM.
In the case of `CCNC(=O)c1ccc(C(=C2C[C@H]3CC[C@@H](C2)N3Cc2ccsc2)c2ccc(CO)cc2)cc1` (single isomer, unassigned) [Cpd 196, N-Ethyl-4-[(4-hydroxymethyl-phenyl)-(8-thiophen-3-ylmethyl-8-aza-bicyclo[3.2.1]oct-3-ylidene)-methyl]-benzamide], the Ki (DOR binding Ki) is reported as 0.56 nM.
`CCNC(=O)c1ccc(C(=C2CC3CCC(C2)N3)c2nnn[nH]2)cc1` (single isomer, unassigned) [Cpd 201] showed a Ki (DOR binding Ki) of 10000 nM.
`CCNC(=O)c1ccc(C(=C2CC3CCC(C2)N3Cc2ccco2)c2nnn[nH]2)cc1` (single isomer, unassigned) [Cpd 203] showed a Ki (DOR binding Ki) of 284 nM.
`CCNC(=O)c1ccc(C(=C2CC3CCC(C2)N3Cc2ccsc2)c2ccc(CO)cc2)cc1` (single isomer, unassigned) [Cpd 206] was tested, and the Ki (read-out: DOR binding Ki) was 16.8 nM.
With `CCNC(=O)c1ccc(C(C#N)=C2CC3CCC(C2)N3Cc2ccoc2)cc1` (single isomer, unassigned) [Cpd 209] the Ki (DOR binding Ki) was 0.94 nM.
`CCNC(=O)c1ccc(C(C#N)=C2CC3CCC(C2)N3Cc2ccoc2)cc1` (single isomer, unassigned) [Cpd 210] gave a Ki (DOR binding Ki) of 1.1 nM.
`CCNC(=O)c1ccc(C(Br)=C2CC3CCC(C2)N3Cc2ccoc2)cc1` (single isomer, unassigned) [Cpd 211] was tested, and the Ki (DOR binding Ki) was 0.27 nM.
Molecule `CCNC(=O)c1ccc(C(Br)=C2CC3CCC(C2)N3Cc2ccoc2)cc1` (single isomer, unassigned) [Cpd 212] has a Ki (DOR binding Ki) of 28.4 nM.
Molecule `CCNC(=O)c1ccc(C(=C2CC3CCC(C2)N3Cc2ccsc2)c2cccc(-c3nnn[nH]3)c2)cc1` (single isomer, unassigned) [Cpd 215] has a Ki (DOR binding Ki) of 30.8 nM.
`CCNC(=O)c1ccc(C(=C2CC3CCC(C2)N3Cc2ccsc2)c2cccc(-c3nnn[nH]3)c2)cc1` (single isomer, unassigned) [Cpd 216] gave a Ki (DOR binding Ki) of 0.68 nM.
For `CCNC(=O)c1ccc(C(=C2C[C@H]3CC[C@@H](C2)N3C(=O)Cc2ccccc2)c2cccnc2)cc1` (single isomer, unassigned) [Cpd 217], the Ki (DOR binding Ki) was 10000 nM.
In the case of `CCNC(=O)c1ccc(C=C2CC3CCC(C2)N3CC(N)Cc2ccccc2)cc1` (centres unmarked) [Cpd 1, 4-[8-(2-Amino-3-phenyl-propyl)-8-aza-bicyclo[3.2.1]oct-3-ylidenemethyl]-N-ethyl-benzamide Hydrochloride], the Ki (DOR binding Ki) is reported as 407 nM.
With `CCNC(=O)c1ccc(C(=C2CC3CCC(C2)N3Cc2ccc3ccccc3n2)c2cccc(F)c2)cc1` [Cpd 3] the Ki (DOR binding Ki) was 9.3 nM.
`CCNC(=O)c1ccc(C(=C2CC3CCC(C2)N3Cc2ccc(NC(C)=O)cc2)c2ccc3c(c2)OCO3)cc1` [Cpd 5] showed a Ki (DOR binding Ki) of 49.2 nM.
Molecule `CCNC(=O)c1ccc(C(=C2CC3CCC(C2)N3Cc2ncc[nH]2)c2ccc3c(c2)OCO3)cc1` [Cpd 6] has a Ki (DOR binding Ki) of 9.96 nM.
`CCNC(=O)c1ccc(C(=C2CC3CCC(C2)N3Cc2ccsc2)c2ccc3c(c2)OCO3)cc1` [Cpd 7] was tested, and the Ki (read-out: DOR binding Ki) was 1.3 nM.
With `CCNC(=O)c1ccc(C(=C2CC3CCC(C2)N3Cc2ccco2)c2ccc3c(c2)OCO3)cc1` [Cpd 8] the Ki (DOR binding Ki) was 2.26 nM.
`CCNC(=O)c1ccc(C(=C2CC3CCC(C2)N3Cc2ccc3ccccc3n2)c2ccc3c(c2)OCO3)cc1` [Cpd 9] showed a Ki (DOR binding Ki) of 13.9 nM.
In the case of `CCNC(=O)c1ccc(C(=C2CC3CCC(C2)N3Cc2ccoc2)c2ccc3c(c2)OCO3)cc1` [Cpd 10], the Ki (read-out: DOR binding Ki) is reported as 1.08 nM.
`CCNC(=O)c1ccc(C(=C2CC3CCC(C2)N3Cc2[nH]cnc2C)c2ccc3c(c2)OCO3)cc1` [Cpd 11] gave a Ki (DOR binding Ki) of 33.9 nM.
Work on `CCNC(=O)c1ccc(C(=C2CC3CCC(C2)N3Cc2sccc2C)c2ccc3c(c2)OCO3)cc1` [Cpd 12] yielded a Ki (DOR binding Ki) of 14.3 nM.
`CCNC(=O)c1ccc(C(=C2CC3CCC(C2)N3Cc2ccc3ccccc3n2)c2ccccn2)cc1` [Cpd 13] gave a Ki (read-out: DOR binding Ki) of 18.4 nM.
Work on `CCNC(=O)c1ccc(C(=C2CC3CCC(C2)N3Cc2ccc(NC(C)=O)cc2)c2cnc3ccccc3c2)cc1` [Cpd 14] yielded a Ki (DOR binding Ki) of 401 nM.
For `CCNC(=O)c1ccc(C(=C2CC3CCC(C2)N3Cc2ccsc2)c2cnc3ccccc3c2)cc1` [Cpd 15], the Ki (read-out: DOR binding Ki) was 11.4 nM.
For `CCNC(=O)c1ccc(C(=C2CC3CCC(C2)N3Cc2ccco2)c2cnc3ccccc3c2)cc1` [Cpd 16], the Ki (read-out: DOR binding Ki) was 4.69 nM.
With `CCNC(=O)c1ccc(C(=C2CC3CCC(C2)N3Cc2ccoc2)c2cnc3ccccc3c2)cc1` [Cpd 17] the Ki (DOR binding Ki) was 4.04 nM.
Work on `CCNC(=O)c1ccc(C(=C2CC3CCC(C2)N3Cc2sccc2C)c2cnc3ccccc3c2)cc1` [Cpd 18] yielded a Ki (DOR binding Ki) of 19.1 nM.
`CCNC(=O)c1ccc(C(=C2CC3CCC(C2)N3Cc2ccc3ccccc3n2)c2cccc(C#N)c2)cc1` [Cpd 20] showed a Ki (DOR binding Ki) of 4.73 nM.
With `CCNC(=O)c1ccc(C(Br)=C2CC3CCC(C2)N3Cc2ccc(NC(C)=O)cc2)cc1` [Cpd 21] the Ki (read-out: DOR binding Ki) was 109 nM.
In the case of `CCNC(=O)c1ccc(C(Br)=C2CC3CCC(C2)N3Cc2ncc[nH]2)cc1` [Cpd 22], the Ki (DOR binding Ki) is reported as 48.3 nM.
For `CCNC(=O)c1ccc(C(Br)=C2CC3CCC(C2)N3Cc2ccsc2)cc1` [Cpd 23], the Ki (read-out: DOR binding Ki) was 6.92 nM.
Molecule `CCNC(=O)c1ccc(C(Br)=C2CC3CCC(C2)N3Cc2ccco2)cc1` [Cpd 24] has a Ki (read-out: DOR binding Ki) of 22.4 nM.
`CCNC(=O)c1ccc(C(Br)=C2CC3CCC(C2)N3Cc2ccc3ccccc3n2)cc1` [Cpd 25] showed a Ki (read-out: DOR binding Ki) of 99.2 nM.
Work on `CCNC(=O)c1ccc(C(Br)=C2CC3CCC(C2)N3Cc2ccoc2)cc1` [Cpd 26] yielded a Ki (DOR binding Ki) of 0.77 nM.
`CCNC(=O)c1ccc(C(Br)=C2CC3CCC(C2)N3Cc2[nH]cnc2C)cc1` [Cpd 27] was tested, and the Ki (DOR binding Ki) was 134 nM.
With `CCNC(=O)c1ccc(C(Br)=C2CC3CCC(C2)N3Cc2sccc2C)cc1` [Cpd 28] the Ki (read-out: DOR binding Ki) was 72.8 nM.
Work on `CCNC(=O)c1ccc(C(=C2CC3CCC(C2)N3Cc2ccc3ccccc3n2)c2cnccn2)cc1` [Cpd 30] yielded a Ki (DOR binding Ki) of 20.4 nM.
`CCNC(=O)c1ccc(C=C2CC3CCC(C2)N3Cc2ccc(NC(C)=O)cc2)cc1` [Cpd 31] was tested, and the Ki (DOR binding Ki) was 59.2 nM.
`CCNC(=O)c1ccc(C=C2CC3CCC(C2)N3Cc2ncc[nH]2)cc1` [Cpd 32] gave a Ki (read-out: DOR binding Ki) of 250 nM.
Work on `CCNC(=O)c1ccc(C=C2CC3CCC(C2)N3Cc2ccsc2)cc1` [Cpd 33] yielded a Ki (DOR binding Ki) of 238 nM.
Molecule `CCNC(=O)c1ccc(C=C2CC3CCC(C2)N3Cc2ccco2)cc1` [Cpd 34] has a Ki (DOR binding Ki) of 281 nM.
`CCNC(=O)c1ccc(C=C2CC3CCC(C2)N3Cc2ccc3ccccc3n2)cc1` [Cpd 35] gave a Ki (read-out: DOR binding Ki) of 5180 nM.
With `CCNC(=O)c1ccc(C=C2CC3CCC(C2)N3Cc2ccoc2)cc1` [Cpd 36] the Ki (read-out: DOR binding Ki) was 92.8 nM.
Molecule `CCNC(=O)c1ccc(C=C2CC3CCC(C2)N3Cc2[nH]cnc2C)cc1` [Cpd 37] has a Ki (DOR binding Ki) of 5490 nM.
`CCNC(=O)c1ccc(C=C2CC3CCC(C2)N3Cc2sccc2C)cc1` [Cpd 38] was tested, and the Ki (read-out: DOR binding Ki) was 5100 nM.
Molecule `CCNC(=O)c1ccc(C(Br)=C2CC3CCC(C2)N3Cc2c[nH]cn2)cc1` [Cpd 39] has a Ki (read-out: DOR binding Ki) of 90.2 nM.
`CCNC(=O)c1ccc(C(Br)=C2CC3CCC(C2)N3Cc2cccs2)cc1` [Cpd 40] was tested, and the Ki (DOR binding Ki) was 14.4 nM.
With `CCNC(=O)c1ccc(C(=C2CC3CCC(C2)N3CC#N)c2ccccc2)cc1` [Cpd 43, 4-[(8-Cyanomethyl-8-aza-bicyclo[3.2.1]oct-3-ylidene)-phenyl-methyl]-N-ethyl-benzamide] the Ki (DOR binding Ki) was 86.3 nM.
In the case of `CCNC(=O)c1ccc(C=C2CC3CCC(C2)N3Cc2c[nH]cn2)cc1` [Cpd 46], the Ki (DOR binding Ki) is reported as 6520 nM.
Molecule `CCNC(=O)c1ccc(C(=C2CC3CCC(C2)N3CC=C(C)C)c2cccc(C(=O)O)c2)cc1` [Cpd 47, 3{(4-Ethylcarbamoyl-phenyl)-[8-(3-methyl-but-2-enyl)-8-aza-bicyclo[3.2.1]oct-3-ylidene]-methyl}-benzoic acid] has a Ki (DOR binding Ki) of 12.6 nM.
Work on `CCN(CC)C(=O)c1ccc(C=C2CC3CCC(C2)N3)cc1` [Cpd 48, 4-(8-Aza-bicyclo[3.2.1]oct-3-ylidenemethyl)-N,N-diethylbenzamide] yielded a Ki (DOR binding Ki) of 4040 nM.
`CCN(CC)C(=O)c1ccc(C(Br)=C2CC3CCC(C2)N3)cc1` [Cpd 49, 4-[(8-Aza-bicyclo[3.2.1]oct-3-ylidene)-bromo-methyl]-N,N-diethylbenzamide] was tested, and the Ki (DOR binding Ki) was 23.7 nM.
Molecule `CCNC(=O)c1ccc(C=C2CC3CCC(C2)N3CCc2ccccc2)cc1` [Cpd 50, N-Ethyl-4-(8-phenethyl-8-aza-bicyclo[3.2.1]oct-3-ylidenemethyl)-benzamide] has a Ki (DOR binding Ki) of 412 nM.
For `CCN(CC)C(=O)c1ccc(C=C2CC3CCC(C2)N3Cc2ccsc2)cc1` [Cpd 52], the Ki (read-out: DOR binding Ki) was 151 nM.
With `CCCCN1C2CCC1CC(=Cc1ccc(C(=O)NCC)cc1)C2` [Cpd 53] the Ki (read-out: DOR binding Ki) was 295 nM.
With `CCNC(=O)c1ccc(C=C2CC3CCC(C2)N3Cc2ccc3c(c2)OCO3)cc1` [Cpd 54] the Ki (DOR binding Ki) was 10000 nM.
For `CCNC(=O)c1ccc(C=C2CC3CCC(C2)N3CC=C(C)C)cc1` [Cpd 55], the Ki (DOR binding Ki) was 1060 nM.
Work on `CCNC(=O)c1ccc(C=C2CC3CCC(C2)N3Cc2ccccn2)cc1` [Cpd 56] yielded a Ki (DOR binding Ki) of 10200 nM.
Work on `CCNC(=O)c1ccc(C=C2CC3CCC(C2)N3Cc2cccnc2)cc1` [Cpd 57] yielded a Ki (DOR binding Ki) of 10000 nM.
With `CCNC(=O)c1ccc(C=C2CC3CCC(C2)N3Cc2ccncc2)cc1` [Cpd 58] the Ki (read-out: DOR binding Ki) was 10000 nM.
With `CCNC(=O)c1ccc(C=C2CC3CCC(C2)N3CC#Cc2ccccc2)cc1` [Cpd 59] the Ki (DOR binding Ki) was 10000 nM.
`CCNC(=O)c1ccc(C=C2CC3CCC(C2)N3Cc2cccs2)cc1` [Cpd 61] gave a Ki (read-out: DOR binding Ki) of 81.5 nM.
`CCNC(=O)c1ccc(C=C2CC3CCC(C2)N3CCc2ccccc2)cc1` [Cpd 62] gave a Ki (read-out: DOR binding Ki) of 148 nM.
Molecule `CCNC(=O)c1ccc(C(=C2CC3CCC(C2)N3Cc2cccs2)c2cnc3ccccc3c2)cc1` [Cpd 64] has a Ki (DOR binding Ki) of 1.43 nM.
`CCNC(=O)c1ccc(C(=C2CC3CCC(C2)N3Cc2ccc3c(c2)OCO3)c2cnc3ccccc3c2)cc1` [Cpd 65] showed a Ki (DOR binding Ki) of 2.56 nM.
For `CCNC(=O)c1ccc(C(=C2CC3CCC(C2)N3Cc2ccccn2)c2cnc3ccccc3c2)cc1` [Cpd 66], the Ki (DOR binding Ki) was 1.97 nM.

Source: patent publication US20050004163A1, “3-(diarylmethylene)-8-azabicyclo[3.2.1]octane derivatives” (priority 2000, published 2005)
